Several values for one entry are separate records, joined by “and”; a condition that tells them apart may be missing. Identical values can stand only once. Like-named read-outs stand apart in the source and are kept apart here.
What was measured:
[1] = target: PF-7802-labelled proteins in ARPE-19 cells (Homo sapiens, UniProt P02545)
[2] = target: PF-7802-labelled proteins in ARPE-19 cells (Homo sapiens, UniProt Q07954); details: protein LRP1 Prolow-density lipoprotein receptor-related protein 1 (Q07954); replicates in separate columns
[3] = target: PF-7802-labelled proteins in ARPE-19 cells (Homo sapiens, UniProt Q14108)
Chain of UniProt Q14108 (Q14108 whole entry): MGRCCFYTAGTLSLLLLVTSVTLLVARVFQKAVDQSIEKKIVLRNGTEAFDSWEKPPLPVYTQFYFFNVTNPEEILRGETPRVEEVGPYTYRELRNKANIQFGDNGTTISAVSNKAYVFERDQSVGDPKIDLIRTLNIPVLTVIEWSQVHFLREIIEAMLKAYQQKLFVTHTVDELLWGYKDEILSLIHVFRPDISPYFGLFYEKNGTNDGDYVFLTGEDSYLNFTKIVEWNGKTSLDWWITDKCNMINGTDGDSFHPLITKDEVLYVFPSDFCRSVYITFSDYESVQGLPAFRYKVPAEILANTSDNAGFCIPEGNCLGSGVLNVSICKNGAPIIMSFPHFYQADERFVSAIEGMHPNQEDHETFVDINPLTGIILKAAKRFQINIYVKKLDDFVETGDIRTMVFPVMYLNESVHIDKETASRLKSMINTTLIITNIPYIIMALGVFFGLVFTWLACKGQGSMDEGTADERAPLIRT

[4] = target: PF-7802-labelled proteins in ARPE-19 cells (Homo sapiens, UniProt P06733); details: P06733 ENO1 Alpha-enolase
Chain of UniProt P06733 (P06733 whole entry): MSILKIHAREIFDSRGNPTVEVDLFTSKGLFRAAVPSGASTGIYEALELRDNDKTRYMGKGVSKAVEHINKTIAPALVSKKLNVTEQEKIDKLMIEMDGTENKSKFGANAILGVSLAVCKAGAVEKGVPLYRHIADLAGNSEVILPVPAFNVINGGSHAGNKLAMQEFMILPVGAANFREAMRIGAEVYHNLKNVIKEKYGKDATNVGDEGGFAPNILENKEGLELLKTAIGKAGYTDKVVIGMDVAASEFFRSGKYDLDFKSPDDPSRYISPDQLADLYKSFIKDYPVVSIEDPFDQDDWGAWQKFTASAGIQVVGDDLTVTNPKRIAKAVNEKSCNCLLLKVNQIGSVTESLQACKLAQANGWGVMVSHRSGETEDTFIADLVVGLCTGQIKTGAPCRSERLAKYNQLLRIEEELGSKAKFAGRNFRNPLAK

[5] = target: PF-7802-labelled proteins in ARPE-19 cells (Homo sapiens, UniProt Q16695); details: protein HIST3H3 Histone H3.1t (Q16695); one column per replicate
[6] = target: PF-7802-labelled proteins in ARPE-19 cells (Homo sapiens, UniProt P67936); details: TPM4 Tropomyosin alpha-4 chain (P67936)
[7] = target: PF-7802-labelled proteins in ARPE-19 cells (Homo sapiens, UniProt P23396); details: protein RPS3 40S ribosomal protein S3, P23396
[8] = target: PF-7802-labelled proteins in ARPE-19 cells (Homo sapiens, UniProt P05165)
[9] = target: PF-7802-labelled proteins in ARPE-19 cells (Homo sapiens, UniProt Q15149)
[10] = target: PF-7802-labelled proteins in ARPE-19 cells (Homo sapiens, UniProt O75643); details: SNRNP200 U5 small nuclear ribonucleoprotein 200 kDa helicase (O75643)
Chain of UniProt O75643 (O75643 whole entry): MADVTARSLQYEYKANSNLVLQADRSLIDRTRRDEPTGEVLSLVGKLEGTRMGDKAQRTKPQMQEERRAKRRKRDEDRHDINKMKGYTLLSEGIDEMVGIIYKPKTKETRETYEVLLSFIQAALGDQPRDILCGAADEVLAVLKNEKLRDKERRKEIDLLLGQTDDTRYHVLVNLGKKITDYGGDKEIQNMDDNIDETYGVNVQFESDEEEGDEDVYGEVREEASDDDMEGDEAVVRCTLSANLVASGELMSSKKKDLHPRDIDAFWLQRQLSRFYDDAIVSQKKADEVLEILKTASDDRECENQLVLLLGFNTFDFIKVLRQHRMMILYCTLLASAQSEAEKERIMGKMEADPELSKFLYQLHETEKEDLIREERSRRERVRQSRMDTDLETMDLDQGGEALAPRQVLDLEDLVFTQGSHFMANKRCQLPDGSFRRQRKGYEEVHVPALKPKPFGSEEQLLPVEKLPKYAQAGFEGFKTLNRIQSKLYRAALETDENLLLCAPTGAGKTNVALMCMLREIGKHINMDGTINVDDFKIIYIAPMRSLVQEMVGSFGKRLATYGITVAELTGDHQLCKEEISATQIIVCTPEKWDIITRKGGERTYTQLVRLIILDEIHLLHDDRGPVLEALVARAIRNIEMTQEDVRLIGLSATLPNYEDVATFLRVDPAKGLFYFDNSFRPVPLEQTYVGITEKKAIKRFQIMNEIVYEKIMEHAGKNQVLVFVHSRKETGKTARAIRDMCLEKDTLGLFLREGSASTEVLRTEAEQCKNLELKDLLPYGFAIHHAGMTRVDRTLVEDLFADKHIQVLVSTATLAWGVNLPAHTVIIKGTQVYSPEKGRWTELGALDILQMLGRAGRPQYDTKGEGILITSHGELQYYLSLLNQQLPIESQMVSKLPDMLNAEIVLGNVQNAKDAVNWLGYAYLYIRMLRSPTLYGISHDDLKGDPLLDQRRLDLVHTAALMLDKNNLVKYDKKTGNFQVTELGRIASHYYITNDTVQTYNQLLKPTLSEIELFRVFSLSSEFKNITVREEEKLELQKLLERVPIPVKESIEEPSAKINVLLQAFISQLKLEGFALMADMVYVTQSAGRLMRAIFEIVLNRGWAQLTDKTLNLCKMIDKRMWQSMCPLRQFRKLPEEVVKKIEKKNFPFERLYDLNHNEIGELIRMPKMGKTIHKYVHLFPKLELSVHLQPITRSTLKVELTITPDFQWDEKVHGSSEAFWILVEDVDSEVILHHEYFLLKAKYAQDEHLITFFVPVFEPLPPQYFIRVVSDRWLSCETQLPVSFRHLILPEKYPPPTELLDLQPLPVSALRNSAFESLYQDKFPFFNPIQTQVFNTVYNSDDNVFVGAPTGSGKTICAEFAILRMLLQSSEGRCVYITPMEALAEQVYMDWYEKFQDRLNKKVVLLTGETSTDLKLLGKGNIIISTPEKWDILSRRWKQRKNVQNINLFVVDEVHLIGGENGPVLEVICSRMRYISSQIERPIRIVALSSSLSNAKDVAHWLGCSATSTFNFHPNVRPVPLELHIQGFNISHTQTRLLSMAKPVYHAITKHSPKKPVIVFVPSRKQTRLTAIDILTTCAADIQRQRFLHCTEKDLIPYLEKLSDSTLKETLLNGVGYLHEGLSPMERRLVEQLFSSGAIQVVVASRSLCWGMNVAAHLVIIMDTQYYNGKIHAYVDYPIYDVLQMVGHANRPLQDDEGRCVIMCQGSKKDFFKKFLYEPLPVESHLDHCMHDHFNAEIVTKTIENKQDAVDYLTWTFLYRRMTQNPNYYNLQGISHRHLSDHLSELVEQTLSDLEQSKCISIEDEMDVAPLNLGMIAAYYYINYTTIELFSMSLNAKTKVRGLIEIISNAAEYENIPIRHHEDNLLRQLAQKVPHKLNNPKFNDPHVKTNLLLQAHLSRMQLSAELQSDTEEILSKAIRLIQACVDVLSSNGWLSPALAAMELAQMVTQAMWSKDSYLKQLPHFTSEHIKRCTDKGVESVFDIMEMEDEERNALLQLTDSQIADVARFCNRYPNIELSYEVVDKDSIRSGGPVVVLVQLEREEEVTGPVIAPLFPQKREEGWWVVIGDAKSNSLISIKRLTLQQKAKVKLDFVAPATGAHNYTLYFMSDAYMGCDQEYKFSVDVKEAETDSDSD

[11] = target: PF-7802-labelled proteins in ARPE-19 cells (Homo sapiens, UniProt Q9NX14); details: protein NDUFB11 NADH dehydrogenase [ubiquinone] 1 beta subcomplex subunit 11, mitochondrial (Q9NX14); replicates in separate columns
[12] = target: PF-7802-labelled proteins in ARPE-19 cells (Homo sapiens, UniProt Q13310); details: protein PABPC4 Polyadenylate-binding protein 4 (Q13310); replicates in separate columns
[13] = system: PF-7802-labelled proteins in ARPE-19 cells
[14] = target: PF-7802-labelled proteins in ARPE-19 cells (Homo sapiens, UniProt P99999); details: protein CYCS Cytochrome c (P99999)
Chain of UniProt P99999 (P99999 whole entry): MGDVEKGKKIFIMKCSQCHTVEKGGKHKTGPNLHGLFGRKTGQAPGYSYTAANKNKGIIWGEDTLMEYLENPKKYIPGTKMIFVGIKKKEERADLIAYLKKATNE

[15] = target: PF-7802-labelled proteins in ARPE-19 cells (Homo sapiens, UniProt Q9HD20); details: protein ATP13A1 Probable cation-transporting ATPase 13A1 (Q9HD20)
[16] = target: PF-7802-labelled proteins in ARPE-19 cells (Homo sapiens, UniProt Q9NVI7); details: protein ATAD3A ATPase family AAA domain-containing protein 3A (Q9NVI7)
[17] = target: PF-7802-labelled proteins in ARPE-19 cells (Homo sapiens, UniProt P13637); details: protein ATP1A3 Sodium/potassium-transporting ATPase subunit alpha-3 (P13637)
[18] = target: PF-7802-labelled proteins in ARPE-19 cells (Homo sapiens, UniProt Q8IZL8); details: protein PELP1 Proline-, glutamic acid- and leucine-rich protein 1 (Q8IZL8); replicates in separate columns
Chain of UniProt Q8IZL8 (Q8IZL8 whole entry): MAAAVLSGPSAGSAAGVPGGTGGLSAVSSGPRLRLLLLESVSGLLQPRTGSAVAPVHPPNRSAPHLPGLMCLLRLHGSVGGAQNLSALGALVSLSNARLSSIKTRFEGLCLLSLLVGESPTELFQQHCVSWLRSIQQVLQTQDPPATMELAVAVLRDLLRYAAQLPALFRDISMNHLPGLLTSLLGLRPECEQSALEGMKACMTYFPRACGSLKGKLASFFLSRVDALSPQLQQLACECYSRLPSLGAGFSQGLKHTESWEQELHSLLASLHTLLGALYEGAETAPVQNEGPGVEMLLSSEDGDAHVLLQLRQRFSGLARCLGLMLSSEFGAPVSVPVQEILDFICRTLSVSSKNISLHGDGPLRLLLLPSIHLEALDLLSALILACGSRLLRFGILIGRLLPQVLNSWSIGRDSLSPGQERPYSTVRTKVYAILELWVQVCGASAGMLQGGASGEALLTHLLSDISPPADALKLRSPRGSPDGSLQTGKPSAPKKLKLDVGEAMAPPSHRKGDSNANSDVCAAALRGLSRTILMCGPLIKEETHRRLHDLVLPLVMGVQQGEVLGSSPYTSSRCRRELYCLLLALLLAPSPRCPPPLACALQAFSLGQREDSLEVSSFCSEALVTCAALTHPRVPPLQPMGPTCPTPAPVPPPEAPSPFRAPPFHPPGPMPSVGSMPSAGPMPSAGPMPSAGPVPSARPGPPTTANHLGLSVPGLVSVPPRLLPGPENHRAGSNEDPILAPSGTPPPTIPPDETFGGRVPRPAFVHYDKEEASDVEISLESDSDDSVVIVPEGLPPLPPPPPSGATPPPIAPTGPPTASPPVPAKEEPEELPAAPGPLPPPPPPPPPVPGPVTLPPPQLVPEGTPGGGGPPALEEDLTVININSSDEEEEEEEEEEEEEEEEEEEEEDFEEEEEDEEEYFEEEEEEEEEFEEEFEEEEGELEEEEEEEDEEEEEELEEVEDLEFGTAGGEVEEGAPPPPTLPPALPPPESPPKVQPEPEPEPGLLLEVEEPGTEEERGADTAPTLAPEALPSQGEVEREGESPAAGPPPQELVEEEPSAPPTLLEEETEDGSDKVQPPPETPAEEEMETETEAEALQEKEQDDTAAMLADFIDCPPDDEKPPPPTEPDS

[19] = target: PF-7802-labelled proteins in ARPE-19 cells (Homo sapiens, UniProt Q5TB80); details: protein KIAA1009 Protein QN1 homolog (Q5TB80); one column per replicate
[20] = target: PF-7802-labelled proteins in ARPE-19 cells (Homo sapiens, UniProt O14880); details: protein MGST3 Microsomal glutathione S-transferase 3 (O14880); replicates in separate columns
[21] = target: PF-7802-labelled proteins in ARPE-19 cells (Homo sapiens, UniProt O60664); details: protein PLIN3 Perilipin-3 (O60664); replicates in separate columns
[22] = target: PF-7802-labelled proteins in ARPE-19 cells (Homo sapiens, UniProt P62306); details: SNRPF Small nuclear ribonucleoprotein F (P62306)
Chain of UniProt P62306 (P62306 whole entry): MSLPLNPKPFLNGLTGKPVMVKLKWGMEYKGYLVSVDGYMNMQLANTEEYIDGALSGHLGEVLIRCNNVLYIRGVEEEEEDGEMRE

[23] = target: PF-7802-labelled proteins in ARPE-19 cells (Homo sapiens, UniProt P63173); details: protein RPL38 60S ribosomal protein L38, P63173

Chain of UniProt P02545 (P02545 whole entry): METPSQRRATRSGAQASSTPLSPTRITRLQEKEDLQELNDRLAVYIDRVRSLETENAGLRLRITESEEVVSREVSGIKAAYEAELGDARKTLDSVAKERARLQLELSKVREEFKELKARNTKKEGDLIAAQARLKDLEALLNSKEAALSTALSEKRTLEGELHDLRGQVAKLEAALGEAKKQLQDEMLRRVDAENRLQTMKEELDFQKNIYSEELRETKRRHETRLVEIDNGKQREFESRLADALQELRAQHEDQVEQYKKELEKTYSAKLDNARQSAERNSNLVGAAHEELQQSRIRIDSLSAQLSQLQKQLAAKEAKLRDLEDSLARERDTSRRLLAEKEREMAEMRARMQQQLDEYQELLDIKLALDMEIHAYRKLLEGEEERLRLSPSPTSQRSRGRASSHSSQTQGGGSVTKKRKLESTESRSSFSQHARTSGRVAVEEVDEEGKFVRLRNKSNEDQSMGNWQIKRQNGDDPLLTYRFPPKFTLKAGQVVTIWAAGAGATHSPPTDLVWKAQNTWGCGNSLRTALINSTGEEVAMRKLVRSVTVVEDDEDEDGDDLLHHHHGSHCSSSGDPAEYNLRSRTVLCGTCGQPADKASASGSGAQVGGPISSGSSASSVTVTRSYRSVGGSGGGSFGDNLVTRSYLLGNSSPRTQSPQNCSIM

Structure (SMILES): CNC1CCN(C(=O)C[C@@H](Cc2ccccc2)C(=O)N[C@@H](CSC)C(=O)N[C@@H](CC2CCCCC2)[C@@H](O)C(=O)OC(C)C)CC1 [CP-108671, reference compound]
- SILAC ratio (DMSO/CP-108671) ([1]; P02545 LMNA Prelamin-A/C): 0.85
- Median SILAC Ratio (Heavy/Light) ([1]; protein LMNA Prelamin-A/C (P02545), replicates in separate columns): 1.17
- Median SILAC Ratio (Heavy/Light) [2]: 0.6969
- SILAC ratio (DMSO/CP-108671) ([3]; Q14108 SCARB2 Lysosome membrane protein 2): 1.16
- Median SILAC Ratio (Heavy/Light) ([3]; protein SCARB2 Lysosome membrane protein 2, Q14108): 1.354 and 0.8603
- SILAC ratio (DMSO/CP-108671) [4]: 0.50
- Median SILAC Ratio (Heavy/Light) [5]: 1.079
- Median SILAC Ratio (Heavy/Light) [6]: 1.679
- Median SILAC Ratio (Heavy/Light) [7]: 6.367
- SILAC ratio (DMSO/CP-108671) ([8]; P05165 PCCA Propionyl-CoA carboxylase alpha chain, mitochondrial): 0.91
- Median SILAC Ratio (Heavy/Light) ([8]; protein PCCA Propionyl-CoA carboxylase alpha chain, mitochondrial (P05165), replicates in separate columns): 1.139 and 0.7997
- SILAC ratio (DMSO/CP-108671) ([9]; Q15149 PLEC Plectin): 0.91
- Median SILAC Ratio (Heavy/Light) ([9]; protein PLEC Plectin (Q15149), replicates in separate columns): 1.104
- Median SILAC Ratio (Heavy/Light) [10]: 1.228
- Median SILAC Ratio (Heavy/Light) [11]: 1.135

Structure (SMILES): Cc1cc([C@H]2C[C@H]3[C@@H](C)SC(N)=N[C@@]3(c3ccc(F)cc3F)CO2)on1 [PF-9283]
- Median SILAC Ratio (Heavy/Light) [12]: 0.6783
- Median SILAC Ratio (Heavy/Light) [13]: 4.83
- Median SILAC Ratio (Heavy/Light) ([13]; UBBP4 Protein UBBP4 (J3QRK5)): 2.167
- Median SILAC Ratio (Heavy/Light) ([13]; Uncharacterized protein (D6R9H1)): 1.443
- Median SILAC Ratio (Heavy/Light) ([13]; Uncharacterized protein (E7EMT2)): 3.222
- Median SILAC Ratio (Heavy/Light) ([13]; Uncharacterized protein (E9PLN8)): 0.967
- Median SILAC Ratio (Heavy/Light) ([13]; Uncharacterized protein (F8VZW7)): 1.734
- Median SILAC Ratio (Heavy/Light) ([13]; Uncharacterized protein (H0YGG7)): 0.6905
- Median SILAC Ratio (Heavy/Light) ([13]; Uncharacterized protein (H3BQZ7)): 1.385
- Median SILAC Ratio (Heavy/Light) ([13]; Uncharacterized protein (I3L1M0)): 217.312
- Median SILAC Ratio (Heavy/Light) ([13]; protein HLA-A HLA class I histocompatibility antigen, A-2 alpha chain (P01892), one column per replicate): 0.8177
- Median SILAC Ratio (Heavy/Light) ([13]; protein HLA-B HLA class I histocompatibility antigen, B-8 alpha chain (P30460), one column per replicate): 1.51
- Median SILAC Ratio (Heavy/Light) ([13]; protein HLA-B HLA class I histocompatibility antigen, B-14 alpha chain (P30462), one column per replicate): 1.51
- Median SILAC Ratio (Heavy/Light) ([13]; protein HLA-B HLA class I histocompatibility antigen, B-35 alpha chain (P30685), one column per replicate): 1.465
- Median SILAC Ratio (Heavy/Light) ([13]; protein HLA-B HLA class I histocompatibility antigen, B-37 alpha chain (P18463), one column per replicate): 1.51
- Median SILAC Ratio (Heavy/Light) ([13]; protein HLA-B HLA class I histocompatibility antigen, B-38 alpha chain (Q95365), one column per replicate): 1.51
- Median SILAC Ratio (Heavy/Light) ([13]; protein HLA-B HLA class I histocompatibility antigen, B-46 alpha chain (P30484), one column per replicate): 1.465
- Median SILAC Ratio (Heavy/Light) ([13]; protein HLA-B HLA class I histocompatibility antigen, B-51 alpha chain (P18464), one column per replicate): 1.465
- Median SILAC Ratio (Heavy/Light) ([13]; protein HLA-B HLA class I histocompatibility antigen, B-54 alpha chain (P30492), one column per replicate): 1.465
- Median SILAC Ratio (Heavy/Light) ([13]; protein HLA-B HLA class I histocompatibility antigen, B-57 alpha chain (P18465), one column per replicate): 1.465
- Median SILAC Ratio (Heavy/Light) ([13]; protein HLA-B HLA class I histocompatibility antigen, B-58 alpha chain (P10319), one column per replicate): 1.465
- Median SILAC Ratio (Heavy/Light) ([13]; protein HLA-B HLA class I histocompatibility antigen, B-59 alpha chain (Q29940), one column per replicate): 1.465
- Median SILAC Ratio (Heavy/Light) ([13]; protein HLA-B HLA class I histocompatibility antigen, B-67 alpha chain (Q29836), one column per replicate): 1.51
- Median SILAC Ratio (Heavy/Light) ([13]; protein HLA-B HLA class I histocompatibility antigen, B-82 alpha chain (Q29718), one column per replicate): 1.51
- Median SILAC Ratio (Heavy/Light) ([13]; protein HLA-C HLA class I histocompatibility antigen, Cw-14 alpha chain (F8VZB9), one column per replicate): 0.1709
- Median SILAC Ratio (Heavy/Light) ([13]; protein HLA-C HLA class I histocompatibility antigen, Cw-17 alpha chain (Q95604), one column per replicate): 0.8177
- Median SILAC Ratio (Heavy/Light) ([13]; protein LOC440131 Similar to bA90M5.1 (Novel protein) (Q5TAE0), replicates in separate columns): 1.214
- Median SILAC Ratio (Heavy/Light) ([13]; protein RBM14/RBM4 fusion Transcriptional coactivator CoAZ, B0LM41): 1.076
- Median SILAC Ratio (Heavy/Light) [14]: 1.201 and 0.8242 and 0.9774
- Median SILAC Ratio (Heavy/Light) [15]: 0.6552
- Median SILAC Ratio (Heavy/Light) [16]: 1.1156
- Median SILAC Ratio (Heavy/Light) [17]: 1.878
- Median SILAC Ratio (Heavy/Light) [18]: 1.084
- Median SILAC Ratio (Heavy/Light) [19]: 1.33
- Median SILAC Ratio (Heavy/Light) [20]: 0.4639
- Median SILAC Ratio (Heavy/Light) [21]: 1.347
- Median SILAC Ratio (Heavy/Light) [22]: 1.336 and 0.9887
- Median SILAC Ratio (Heavy/Light) [23]: 1.704
